Experimental findings from the supplement of paper PMC11417369 are described below.

The other results are listed elsewhere or left out.

This assay concerns PfAP2-HC AP2 domain (GST-tagged). Kind of assay: gcPBM binding intensity (ln(normalized median fluorescence intensity)); higher = stronger DNA binding. Summed up:
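Binding intensity is the highest Masliner-normalised natural-log median intensity over replicate spots in either probe orientation. To obtain it, GST-tagged P. falciparum DNA-binding domains made in E. coli were incubated for 1 h on an Agilent 4 × 180k array of primer-extended double-stranded 36-bp intergenic genomic probes plus negative controls. Detection used Alexa488 anti-GST antibody with scanning at 488 nm.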
For “CACATACATATATATACACACAAATATATATACACA [CACACA_site8164]”, the “gcPBM binding intensity (ln)” value turned out to be 10.

For the sequence “GATATAAAATATTGGTGTACTTTTTTTTTTTTTTTT [XGTACX_site7174]”, the “gcPBM binding intensity (ln)” value is 9.47.

In the case of “GTATGTGTGTCAAGTCGTACTTACCTTTAAATTTTT [XGTACX_site2507]”, the “gcPBM binding intensity (ln)” value was 10.1.

Consider “TTTTTTTTTTTTTTTTTTTCTATTTTACTGTTTCGT [CACACA_negctrl_site850]”, for which the “gcPBM binding intensity (ln)” value is 8.78.

Turning to “TGTGAAGTACCGAATGTGCACTGTGTGTGTTCTTTT [GTGCAC_site9613]”, the “gcPBM binding intensity (ln)” value was 10.4.

As for “ATAATTAATAAATAATGTACATATATATTATATTTT [XGTACX_site8546]”, the “gcPBM binding intensity (ln)” value worked out at 9.61.

Regarding “TTTTTATATTTTTGCACACATTCTTTACTCTTCAAA [CACACA_site2210]”, the “gcPBM binding intensity (ln)” value amounted to 10.

On to “TATATATATGGACACACACACATATAAATAAATAAA [CACACA_site4406]”, for which the “gcPBM binding intensity (ln)” value was determined as 10.7.

As for “TTAAAAAAAAAACACACACACATACACATATATATA [CACACA_site3299]”, the “gcPBM binding intensity (ln)” value came to 11.1.

Take “ATGATTATTTTAAAAAGTACTAATTATTATTTTTTT [XGTACX_site7242]”: the “gcPBM binding intensity (ln)” value worked out at 9.37.

Regarding “GAATATGAATATTTGCGTACTTATATAACTGTTCTA [XGTACX_site883]”, the “gcPBM binding intensity (ln)” value was determined as 9.72.

For the sequence “AAAAAAAATAATAATACACACAATATGATATGTACA [CACACA_site850]”, the “gcPBM binding intensity (ln)” value was 9.97.

As for “ATACACATTCGAAATAACAAAAAAATACATACACAT [GTGCAC_negctrl_site628]”, the “gcPBM binding intensity (ln)” value came out at 9.87.

For the sequence “TACTATAAGATATATACACACAAGAAATACAAAACG [CACACA_site6764]”, the “gcPBM binding intensity (ln)” value came to 10.4.

Regarding “ATTATTTTAATTTTAATTTTTTTTTTTTTTTGTTTT [CACACA_negctrl_site1063]”, the “gcPBM binding intensity (ln)” value amounted to 9.4.

In the case of “TATTTTTCCATAAAAATTTATATAGAAACAAATAAT [GTGCAC_negctrl_site103]”, the “gcPBM binding intensity (ln)” value is 9.29.

With “CCCTTTTATTAAAATTCACACACATAAATTTTTATA [CACACA_site8611]”, the “gcPBM binding intensity (ln)” value came to 9.96.

In the case of “TTTTTATACAATTAGACACACACAAAAAGTATATAT [CACACA_site8272]”, the “gcPBM binding intensity (ln)” value worked out at 9.93.

As to “ATATATGTATATTTTTGTACGCATAAATATATTTTT [XGTACX_site827]”, the “gcPBM binding intensity (ln)” value worked out at 9.62.

For the sequence “TGCTTAATTTACGTGGGTACATACACCTCATATATT [XGTACX_site3093]”, the “gcPBM binding intensity (ln)” value was 9.77.

For “TTAATACATATATATATATTATATATATATATATAT [TGCATGCA_negctrl_site177]”, the “gcPBM binding intensity (ln)” value was 9.62.

Take “TATTTGTTGTGAGTCACACATATATATATATATATA [CACACA_site4240]”: the “gcPBM binding intensity (ln)” value stood at 9.84.

Turning to “TTTTTTATAAAATTTTTTTTTTAAAATATTAAAACT [XGTACX_negctrl_site240]”, the “gcPBM binding intensity (ln)” value came out at 9.35.

Turning to “AAGCTATATATAGGCAGTACTTTGTAAGTGTAGATA [XGTACX_site8365]”, the “gcPBM binding intensity (ln)” value worked out at 9.82.

Consider “AAAAAAAAAAAAAAAACACACAGAACAATATATAAA [CACACA_site4698]”, for which the “gcPBM binding intensity (ln)” value stood at 10.3.

As to “TATATGCATATACATACACACATAACACATACGTTT [CACACA_site3832]”, the “gcPBM binding intensity (ln)” value was determined as 9.98.

Consider “TTTCTAATTCTTAGTGGTACACAGTTCTGCTGATAT [XGTACX_site2391]”, for which the “gcPBM binding intensity (ln)” value worked out at 9.5.

With “ATATGTCACTTGTATACACACATATAGATTTCAATC [CACACA_site7519]”, the “gcPBM binding intensity (ln)” value was found to be 9.94.

As to “TTGTTTTTTTTTGGCTGTACGTTCATAAATTTTTTT [XGTACX_site4165]”, the “gcPBM binding intensity (ln)” value was 9.74.

Take “TTTTCATAAAATCATTGTACATTTATCGTATATTAA [XGTACX_site3855]”: the “gcPBM binding intensity (ln)” value is 9.65.

In the case of “AAAATATCTTATATATGTACATATTTATATTTATAT [XGTACX_site6027]”, the “gcPBM binding intensity (ln)” value worked out at 9.78.

Turning to “ATATTGTAAGTAAACACACACACATATATATGTATA [CACACA_site8124]”, the “gcPBM binding intensity (ln)” value turned out to be 10.6.

As for “ACAATTTACACTTAAACACACAAAAAAAAATTATAT [CACACA_site2065]”, the “gcPBM binding intensity (ln)” value came out at 9.99.

“GCATCGATCAAACATACACACATGGTTAATAAAAAT [CACACA_site8651]”: the “gcPBM binding intensity (ln)” value amounted to 10.

Turning to “AAGGTAGAAATATGTTGTACGGTTTGGAGGAAGCAA [XGTACX_site1105]”, the “gcPBM binding intensity (ln)” value came to 9.73.

For the sequence “TGTTTTATTTTATTAGTGCATTTTTATTTATAATAG [GTGCAC_site9453]”, the “gcPBM binding intensity (ln)” value amounted to 9.59.

As for “ACATATATATTCATATGTACATATACATACATACAT [XGTACX_site4563]”, the “gcPBM binding intensity (ln)” value came out at 9.94.

Turning to “GACAAAAAATTAAAATAAAATAATAATATAATAAAA [GTGCAC_negctrl_site234]”, the “gcPBM binding intensity (ln)” value is 9.62.

As to “ATATAATAGTTATATTGTACATAAATTATACACCTT [XGTACX_site628]”, the “gcPBM binding intensity (ln)” value is 9.7.

For “TATAAACACCCATATAAACACACATATAAACCAACA [CACACA_site8790]”, the “gcPBM binding intensity (ln)” value was determined as 10.

Consider “ATACGCACACATATATGTACATATTGTATATATATA [XGTACX_site3962]”, for which the “gcPBM binding intensity (ln)” value was found to be 9.91.

As to “GGAATGGTACATGATACACACACGCACATATATATA [CACACA_site5825]”, the “gcPBM binding intensity (ln)” value was determined as 10.1.

As to “TATATTAAACAATATACACACATTAATGTATACATA [CACACA_site2755]”, the “gcPBM binding intensity (ln)” value stood at 9.8.

For the sequence “AATATATGTATATATTTTTTTTTTTCCCTTACAAAT [GTGCAC_negctrl_site428]”, the “gcPBM binding intensity (ln)” value came to 9.37.
